# Results taken from PubChem BioAssay AID485360 (National Center for Advancing Translational Sciences (NCATS), 2010).
# In all, about 230,000 compounds went through this assay and about 1,500 (0.65%) were called active. The inconclusive results got no clear call from the source; some entries with a clear call stand among them for comparison. Calls follow the shape of the dose curve; as a rule, active = well fitted inhibition curve with a large enough effect; inconclusive = small, poorly fitted or top-dose-only effect; inactive = no such curve, though single readings can be large or run the other way. A potency beside an inconclusive call is a rough fit, not a confirmed value.
# Biological target: Lethal(3)malignant brain tumor-like protein 1 (Homo sapiens) (UniProt Q9Y468)
# Assay: qHTS Assay for the Inhibitors of L3MBTL1; also: nearly all actives have a fitted effect of over 60% in size
# Conditions: AlphaScreen L3MBTL1–H3K9me1 peptide binding; activity, negative = inhibition: at 57.1 µM (top of the series)
# How it was run: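 AlphaScreen proximity signal between nickel-chelate acceptor and streptavidin donor beads (final 10 ug/mL) reports binding of 50 nM L3MBTL1 to 75 nM biotin-H3 K9me1 peptide; complex incubated with compounds 30 min at room temperature; cefsulodin titration as control.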
# % is scaled to controls: 0 for no effect and ±100 for the full control effect; potency is read from the fitted curve at half-maximal effect; tags tell the direction and shape of the fitted curve.
# Chain of UniProt Q9Y468 (Q9Y468 whole entry, looked up): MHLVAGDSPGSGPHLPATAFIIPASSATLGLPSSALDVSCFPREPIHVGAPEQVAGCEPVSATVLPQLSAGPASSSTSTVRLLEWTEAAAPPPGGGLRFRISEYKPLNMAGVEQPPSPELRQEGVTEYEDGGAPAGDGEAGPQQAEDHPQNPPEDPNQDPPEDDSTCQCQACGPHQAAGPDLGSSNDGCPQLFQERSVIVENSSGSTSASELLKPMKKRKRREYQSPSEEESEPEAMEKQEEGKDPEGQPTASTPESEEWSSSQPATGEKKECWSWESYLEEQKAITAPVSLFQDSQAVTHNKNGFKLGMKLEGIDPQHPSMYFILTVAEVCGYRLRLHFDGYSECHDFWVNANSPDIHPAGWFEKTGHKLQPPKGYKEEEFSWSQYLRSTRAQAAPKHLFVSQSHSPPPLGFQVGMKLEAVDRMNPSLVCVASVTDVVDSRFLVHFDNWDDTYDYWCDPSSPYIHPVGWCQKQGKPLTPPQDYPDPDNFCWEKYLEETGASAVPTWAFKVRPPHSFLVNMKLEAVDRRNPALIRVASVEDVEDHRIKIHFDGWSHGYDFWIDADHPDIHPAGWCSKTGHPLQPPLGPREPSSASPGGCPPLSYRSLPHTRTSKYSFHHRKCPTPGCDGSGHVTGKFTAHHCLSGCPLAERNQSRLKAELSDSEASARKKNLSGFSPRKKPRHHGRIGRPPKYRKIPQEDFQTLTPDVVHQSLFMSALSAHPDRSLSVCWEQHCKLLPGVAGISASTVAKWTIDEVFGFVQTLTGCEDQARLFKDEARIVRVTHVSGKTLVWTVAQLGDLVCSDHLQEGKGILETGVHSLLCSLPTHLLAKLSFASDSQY
Structure (SMILES),Potency,"activity, negative = inhibition"
COc1ccc2c(CC(=O)Nc3nccs3)coc2c1,"inconclusive: 0.141 µM [inhibitor, full curve, poor fit]",
O=C(CN1CCCC1)OCCCc1ccccc1,inactive,
CCOC(=O)CS(=O)(=O)c1nc(-c2ccccc2)cc(C(F)(F)F)n1,inactive,
Cn1cnnc1SCC(=O)Nc1sc2c(c1C(N)=O)CCC2,"inconclusive: 25.1 µM [inhibitor, single point]",
CN(CC1CCOCC1)C(=O)CC1C(=O)NCCN1Cc1ccc(-c2ccccc2)cc1 (centres undefined),inactive,
CO[C@@]1(NC(=O)CSCC#N)C(=O)N2C(C(=O)O)=C(CSc3nnnn3C)CS[C@@H]21,,inconclusive: -93.9% [inhibitor]
CC(=O)N(C)c1ccc(N=NC2C(=O)N(C(N)=S)N=C2C)cc1 (centres undefined),"inconclusive: 3.98 µM [inhibitor, partial curve]",
CCOC(=O)Cc1csc(NC(=O)c2sc3nc4c(C)cc(C)cc4cc3c2N)n1,inactive,
O=C(/C=C/c1ccco1)NC(=S)Nc1cc(-c2nc3ccccc3s2)ccc1Cl,"inconclusive: 31.6 µM [inhibitor, single point]",
CCN(CC1COc2ccccc2O1)C(=S)Nc1ccccc1 (centres undefined),inactive,
O=C(C[n+]1ccccc1)N/N=C/c1ccco1,"inconclusive: 0.501 µM [inhibitor, full curve, poor fit]",
O=C(N/N=C/c1ccc(O)c2ncccc12)c1cccc(Br)c1,active: 7.94 µM,
Cc1noc(NS(=O)(=O)c2ccc(NC(=O)Nc3ccc(Cl)c(Cl)c3)cc2)c1C,"inconclusive: 2.82 µM [inhibitor, single point]",
Cc1c(C(=O)Nc2nc(-c3ccccn3)cs2)oc2ccccc12,"inconclusive: 35.5 µM [inhibitor, single point]",
O=C(CCn1nc(-c2ccccc2)c2ccccc2c1=O)Nc1cccnc1,"inconclusive: 6.31 µM [inhibitor, single point]",
c1cnc2c(c1)ccc1cccnc12,active: 3.16 µM,
CC(C)(C)c1ccc(C(=O)NNC(=O)c2ccc(Cl)cc2)cc1,inactive,
COc1ccccc1CN1CCN(Cc2nc(-c3ccccc3)no2)CC1,"inconclusive: 7.94 µM [inhibitor, partial curve]",
CCCN(C(=O)COC(=O)c1cc(CC)c(C)s1)c1c(N)n(Cc2ccccc2)c(=O)[nH]c1=O,"inconclusive: 39.8 µM [inhibitor, single point]",
COc1ccc2nc3ccccc3nc2c1N,"inconclusive: 39.8 µM [inhibitor, single point]",
COc1ccccc1N=Nc1nc(-c2ccccc2)c(-c2ccccc2)[nH]1,"inconclusive: 31.6 µM [inhibitor, single point]",
COc1ccc2c(c1)-c1c(sn(-c3ccc(OC)c(OC)c3)c1=S)C(C)(C)N2,"inconclusive: 31.6 µM [inhibitor, single point]",

Structure (SMILES),Potency,"activity, negative = inhibition"
Cc1cc[n+](-c2nc3ccccc3nc2[N-]S(=O)(=O)c2ccccc2)cc1,"inconclusive: 0.631 µM [inhibitor, single point]",
Cc1ccc(NC(=S)NC2CCCCC2)cc1S(=O)(=O)N(C)C,"inconclusive: 0.355 µM [inhibitor, full curve, poor fit]",
CN1CCc2cccc3c2[C@H]1Cc1ccc(O)c(O)c1-3,"inconclusive: 31.6 µM [inhibitor, single point]",inconclusive: -34.1% [inhibitor]
CN(c1ccccc1)S(=O)(=O)c1cccc(C(=O)NCCc2ccc(O)c(O)c2)c1,"inconclusive: 35.5 µM [inhibitor, partial curve]",
NNC(=O)C(Cc1ccccc1)NC(=O)OCc1ccccc1 (centres undefined),"inconclusive: 39.8 µM [inhibitor, single point]",
O=c1c2c(n3nnnc3n1Cc1ccccc1)-c1ccccc1CC21CCCC1,"inconclusive: 0.891 µM [inhibitor, single point]",
Cn1cc(/C=N/NC(=O)c2ccc(C#N)cc2F)c2ccccc21,"inconclusive: 0.708 µM [inhibitor, single point]",
CN(C)S(=O)(=O)c1ccc(C(=O)NNC(=O)C2COc3ccccc3O2)cc1 (centres undefined),"inconclusive: 0.447 µM [inhibitor, full curve]",
COc1ccc(Sc2ccc(/C=C3\C(=O)NN(c4ccccc4)C3=O)o2)cc1,active: 28.2 µM,
Cc1ccc(S(=O)(=O)CC(=O)Nc2sc(C)c(C)c2C(N)=O)cc1,"inconclusive: 15.8 µM [inhibitor, partial curve]",
O=C(OCC(=O)c1ccc(Cl)s1)c1ccccn1,"inconclusive: 28.2 µM [inhibitor, partial curve]",
Cc1cc(C)c(NC(=O)CCCOC(=O)C2=COCCO2)c(C)c1,"inconclusive: 6.31 µM [inhibitor, single point]",
Cc1ccc(S(=O)(=O)N(C(=O)c2ccncc2)c2ccc(OC(=O)c3ccncc3)c3ccccc23)cc1,inactive,
COc1cc(C2c3c(oc4ccccc4c3=O)C(=O)N2Cc2cccnc2)cc(OC)c1OC (centres undefined),"inconclusive: 7.08 µM [inhibitor, single point]",
CCOc1ccccc1CNC(=O)c1cc2occc2n1C,"inconclusive: 39.8 µM [inhibitor, single point]",
Oc1ccc(C[C@@H]2CNCCN2CCc2cc(C(F)(F)F)cc(C(F)(F)F)c2)cc1,"inconclusive: 7.08 µM [inhibitor, single point]",
COc1ccc2nc(NC(=O)CN(C)S(=O)(=O)c3cccs3)sc2c1,"inconclusive: 6.31 µM [inhibitor, single point]",
CCN(CC)CCN(Cc1cc2cc3c(cc2[nH]c1=O)OCO3)C(=S)NC,"inconclusive: 1.41 µM [inhibitor, single point]",
CC(C)C1Nc2ccc(C(=O)O)cc2C2C=CCC21 (centres undefined),active: 4.47 µM,
C=CCNc1sc(C(=O)c2ccccc2)c(N)c1-c1nc2ccccc2s1,"inconclusive: 20 µM [inhibitor, partial curve]",
COc1ccc(N2CCN(C(=O)Cc3ccc(S(=O)(=O)N4CCOCC4)s3)CC2)cc1,"inconclusive: 31.6 µM [inhibitor, single point]",
